Where “and” joins values, the source holds several entries; their conditions need not be identical. Equal values may be shown once. Inconclusive results, whose numbers are uncertain, are shown with a selection of clear calls. For some of these results: Potencies of inconclusive entries are doubtful fits and often do not repeat. Calls of active or inactive are those of the source. Unless noted, calls come from the whole dose curve; as a rule, active = well fitted curve in the direction sought with a large enough effect; inconclusive = small, poorly fitted or top-dose-only effect, or another doubt; inactive = no such curve, though single readings can be large; an effect the other way counts as inactive or inconclusive.
Columns and labels:
[1] = P-glycoprotein substrates identified in KB-8-5-11 adenocarcinoma cell line, qHTS therapeutic library screen (AID 1346987); note: nearly all actives have a fitted effect of over 65% in size
How it was run: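 KB-8-5-11, a colchicine-selected P-gp-overexpressing KB-3-1 subline, was grown without colchicine for the assay. Cells were seeded at 500 cells/well, dosed in concentration-response and incubated 72 h at 37 degree C, 5% CO2. Viability was read by CellTiter-Glo luminescence.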

[2] = Primary qHTS for inhibitors of nuclear receptor binding SET domain protein 2 (NSD2) in an isogenic RCH-ACV NSD2 p.E1099K mutant (9B) (AID 1645876); note: nearly all actives have a fitted effect of over 70% in size
[3] = Primary qHTS for inhibitors of nuclear receptor binding SET domain protein 2 (NSD2) in an RCH-ACV wild type WT cells (2C) (AID 1645877); settings: activity change, negative = cell killing: at 44.9 µM (top of the series); note: nearly all actives have a fitted effect of over 70% in size
[4] = test system: HEK293; assay: Cytotoxic Profiling of Annotated Libraries Using Quantitative High-Throughput Screening (AID 1296008); settings: Five cell lines viability, CellTiter-Glo ATP luminescence, 48-72 h; max response: stronger effect = lower value; note: nearly all actives have a fitted effect of over 60% in size; for max response: % is set by controls: 0 for no effect and ±100 for the full control effect
How it was run: (§1)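 Compounds were pin-transferred onto cells and incubated 48 or 72 hr at 37 degree Celsius, 95% humidity. CellTiter-Glo was added, plates sat 10 min at room temperature, then ATP-coupled luminescence was imaged as the viability read-out.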

[5] = test system: HaCat; assay: as above; settings: Five cell lines viability, CellTiter-Glo ATP luminescence, 48-72 h; max response: stronger effect = lower value
How it was run: as §1

[6] = test system: NIH3T3; assay: as above; settings: Five cell lines viability, CellTiter-Glo ATP luminescence, 48-72 h; max response: stronger effect = lower value
How it was run: as §1

[7] = test system: Es-2; assay: Primary qHTS to identify gynecologic anti-cancer compounds using libraries of approved drugs and bioactive compounds (AID 1345084); settings: Gynecologic cancer cell panel viability, ATPlite luminescence, 48 h; series mostly up to 57.5 µM; note: nearly all actives have a fitted effect of over 55% in size; for activity change, negative = cytotoxicity: % is set by controls: 0 for no effect and ±100 for the full control effect
How it was run: (§2)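 Luminescence from the ATPlite ATP-monitoring reagent indicates viable cell number; lower signal means cytotoxicity. Cells received compound 16 h after seeding and were exposed for 48 h across five concentrations.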

[8] = test system: Hek293T; assay: as above; settings: Gynecologic cancer cell panel viability, ATPlite luminescence, 48 h, control line for the selectivity index; series mostly up to 57.5 µM
How it was run: as §2

[9] = test system: PA-1; assay: as above; settings: Gynecologic cancer cell panel viability, ATPlite luminescence, 48 h; series mostly up to 57.5 µM
How it was run: as §2

[10] = test system: SKOV3; assay: as above; settings: Gynecologic cancer cell panel viability, ATPlite luminescence, 48 h; series mostly up to 57.5 µM
How it was run: as §2

[11] = molecular target: Cytochrome P450 2D6 (Homo sapiens) (UniProt P10635); assay: Cytochrome P450 family 2 subfamily D member 6 (CYP2D6) small molecule antagonists: luciferase biochemical (cell-free) qHTS assay (AID 1645840; active = well fitted curve in the direction sought with a large enough effect in the repeat runs; inconclusive = weak or mixed curves; inactive = no such curve, though single readings can be large; an effect the other way counts as inactive or inconclusive; note: nearly all actives have a fitted effect of over 55% in size)
How it was run: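 P450-Glo luminescent screen: recombinant CYP2D6 enzyme–proluciferin substrate mix preincubated with compound 10 min at room temperature, then NADPH regeneration added for 1 h at room temperature. Detection reagent added for 20 min; luciferin light read as relative luminescence units.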

[12] = test system: CRL-7250; assay: Cytotoxic Profiling of Annotated Libraries Using Quantitative High-Throughput Screening (AID 1296008); settings: Five cell lines viability, CellTiter-Glo ATP luminescence, 48-72 h; max response: stronger effect = lower value; note: nearly all actives have a fitted effect of over 60% in size; for max response: % is set by controls: 0 for no effect and ±100 for the full control effect
How it was run: as §1

[13] = test system: CAOV3; assay: Primary qHTS to identify gynecologic anti-cancer compounds using libraries of approved drugs and bioactive compounds (AID 1345084); settings: Gynecologic cancer cell panel viability, ATPlite luminescence, 48 h; series mostly up to 57.5 µM; note: nearly all actives have a fitted effect of over 55% in size
How it was run: as §2

[14] = test system: OV90; assay: as above; settings: Gynecologic cancer cell panel viability, ATPlite luminescence, 48 h; series mostly up to 57.5 µM
How it was run: as §2

[15] = test system: Tov-21-G; assay: as above; settings: Gynecologic cancer cell panel viability, ATPlite luminescence, 48 h; activity change, negative = cytotoxicity: at 57.5 µM (top of the series)
How it was run: as §2

[16] = test system: KB-3-1; assay: Cytotoxic Profiling of Annotated Libraries Using Quantitative High-Throughput Screening (AID 1296008); settings: Five cell lines viability, CellTiter-Glo ATP luminescence, 48-72 h; max response: stronger effect = lower value; note: nearly all actives have a fitted effect of over 60% in size; for max response: % is set by controls: 0 for no effect and ±100 for the full control effect
How it was run: as §1

[17] = test system: Zika virus NS2B-NS3 protease (unlinked complex); assay: Primary screen GU Rhodamine qHTS for Zika virus inhibitors: Unlinked NS2B-NS3 protease assay (AID 1347159); note: nearly all actives have a fitted effect of over 60% in size
How it was run: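 Noncovalent NS2B hydrophilic domain–NS3 protease domain complex (25 nM) preincubated 15 min at room temperature with compounds (up to 114 microM) in 10 mM Tris-HCl pH 8.0, 0.01% Tween 20; 1.5 microM Rhodamine110 substrate added, fluorescence change over 15 min fitted to Hill equation.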

[18] = Primary fluorescence-based thiol-reactive (MSTI) qHTS assay for identification of artifact compounds. (AID 1845221);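 note: thiol-reactive compounds lower the probe fluorescence signal; nearly all actives have a fitted effect of over 65% in size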
How it was run: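 Compounds were incubated 1 h at room temperature in the dark with the MSTI probe (4 uM) in PBS pH 7.4, 2% DMSO. Signals were normalized between Acetyl-MSTI and MSTI.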

[19] = Primary redox qHTS assay for identification of artifact compounds. (AID 1845223)
How it was run: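 Amplex Red (25 uM) and HRP (250 mU/mL) in HBSS, with compounds for 15 min, then 250 uM DTT for 30 min, room temperature, dark. Fluorescence 525/598 nm read; normalized to DMSO and 10 uM DA3003; Hill fit.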

[20] = molecular target: Cytochrome P450 2C9 (Homo sapiens) (UniProt P11712); assay: Cytochrome P450 family 2 subfamily C member 9 (CYP2C9) small molecule antagonists: luciferase biochemical (cell-free) qHTS assay (AID 1645842; active = well fitted curve in the direction sought with a large enough effect in the repeat runs; inconclusive = weak or mixed curves; inactive = no such curve, though single readings can be large; an effect the other way counts as inactive or inconclusive; note: nearly all actives have a fitted effect of over 55% in size)
How it was run: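 Luminescence, after 20 min with luciferin detection reagent, reflected CYP2C9 turnover during a 1 h NADPH-driven reaction at 37C. Enzyme-substrate mix contained 0.4% bovine serum albumin and was preincubated with compound 10 min at room temperature.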
Potency is the fitted concentration of half-maximal effect; tags give direction and shape of the fitted curve.

Sequence of UniProt P11712 (P11712 whole entry, looked up): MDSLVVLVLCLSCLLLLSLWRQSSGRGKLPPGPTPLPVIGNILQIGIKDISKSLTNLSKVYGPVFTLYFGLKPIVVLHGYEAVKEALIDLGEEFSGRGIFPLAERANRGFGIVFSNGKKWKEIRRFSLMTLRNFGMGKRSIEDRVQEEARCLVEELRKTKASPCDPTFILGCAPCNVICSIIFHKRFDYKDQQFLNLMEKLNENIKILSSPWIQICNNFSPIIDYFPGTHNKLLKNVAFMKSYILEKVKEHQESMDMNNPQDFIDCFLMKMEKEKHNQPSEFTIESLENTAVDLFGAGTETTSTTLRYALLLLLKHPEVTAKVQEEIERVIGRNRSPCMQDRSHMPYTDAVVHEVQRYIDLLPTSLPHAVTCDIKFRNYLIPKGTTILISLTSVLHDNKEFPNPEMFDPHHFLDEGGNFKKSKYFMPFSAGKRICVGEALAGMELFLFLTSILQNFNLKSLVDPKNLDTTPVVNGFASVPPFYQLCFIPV
Sequence of UniProt P10635 (P10635 whole entry, looked up): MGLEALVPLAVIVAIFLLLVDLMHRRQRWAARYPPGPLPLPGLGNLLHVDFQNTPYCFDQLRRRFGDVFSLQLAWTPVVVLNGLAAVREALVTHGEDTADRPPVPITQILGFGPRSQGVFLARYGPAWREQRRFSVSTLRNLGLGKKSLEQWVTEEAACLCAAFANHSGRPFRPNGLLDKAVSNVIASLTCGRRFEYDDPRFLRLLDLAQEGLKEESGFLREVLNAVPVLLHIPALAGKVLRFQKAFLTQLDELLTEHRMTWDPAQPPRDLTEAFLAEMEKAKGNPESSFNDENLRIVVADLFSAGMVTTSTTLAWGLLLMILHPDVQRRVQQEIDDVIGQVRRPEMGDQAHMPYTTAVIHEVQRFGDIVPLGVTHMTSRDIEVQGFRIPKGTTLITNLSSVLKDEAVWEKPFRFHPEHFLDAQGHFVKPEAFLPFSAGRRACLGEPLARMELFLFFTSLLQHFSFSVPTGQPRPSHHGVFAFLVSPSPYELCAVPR

## CS(=O)(=O)c1ccc(-c2cnc(N)c(C(=O)Nc3ccccc3)n2)cc1
[1]
  Potency: inconclusive: 13 µM [inhibitor, partial curve]
[2]
  Potency: active: 2.63 µM
[3]
  Potency: active: 2.63 µM
[4]
  Potency: inconclusive: 33.2 µM [inhibitor, single point] and active: 11.6 µM
[5]
  max response: inactive: -14.1%
  outcome: inactive
[6]
  Potency: active: 14.8 µM and active: 5.17 µM
[7]
  Potency: inconclusive: 39.8 µM [cytotoxic, single point]
[8]
  Potency: inactive
[9]
  Potency: inconclusive: 22.4 µM [cytotoxic, single point]
[10]
  Potency: inconclusive: 7.08 µM [cytotoxic, full curve]

## O=C(CSc1nc2c(c(=O)n1-c1ccccc1)SCC2)Nc1ccc(-c2ccccc2)cn1
[11]
  Potency: inconclusive: 23.9 µM [inhibitor, single point]
[12]
  Potency: active: 0.231 µM
[6]
  Potency: active: 58 nM
[13]
  Potency: inconclusive: 8.91 µM [cytotoxic, partial curve, poor fit]
[7]
  Potency: active: 0.224 µM
[8]
  Potency: inconclusive: 0.224 µM [cytotoxic, full curve, poor fit]
[14]
  Potency: active: 1.26 µM
[9]
  Potency: inconclusive: 0.251 µM [cytotoxic, full curve, poor fit]
[10]
  Potency: inconclusive: 0.141 µM [cytotoxic, full curve, poor fit]
[15]
  Potency: active: 0.316 µM

## C=C1C(=O)O[C@@H]2C[C@@]3(C)CCC[C@H](C)C3=C[C@H]12
[12]
  Potency: inconclusive: 29.1 µM [inhibitor, single point]
[16]
  Potency: inconclusive: 23.1 µM [inhibitor, single point]
[7]
  Potency: inconclusive: 28.2 µM [cytotoxic, single point]
[8]
  Potency: inactive
[10]
  Potency: inconclusive: 39.8 µM [cytotoxic, single point]
[15]
  Potency: inconclusive: 35.5 µM [cytotoxic, single point]

## Cc1ccccc1N1C(=O)c2cc(S(N)(=O)=O)c(Cl)cc2NC1C (stereo unspecified)
[4]
  Potency: inconclusive: 11.8 µM [inhibitor, single point]
  outcome: inactive
[14]
  Potency: inconclusive: 39.8 µM [cytotoxic, single point]

## COc1cc([C@@H](CC(=O)O)c2ccc(C)c(CN3C[C@@H](C)Oc4ccccc4S3(=O)=O)c2)cc2nnn(C)c12
[3]
  Potency: inconclusive: 5.9 µM [inhibitor, partial curve]
[12]
  Potency: inconclusive: 37.1 µM [inhibitor, single point]
[4]
  Potency: inconclusive: 18.6 µM [inhibitor, partial curve]

## Cc1sc2c(c1C)C(c1ccc(Cl)cc1)=N[C@H](CC(=O)NCCCCNC(=O)COc1cccc3c1C(=O)N([C@H]1CCC(=O)NC1=O)C3=O)c1nnc(C)n1-2
[3]
  Potency: active: 0.129 µM
[12]
  Potency: active: 1.84 µM
[16]
  Potency: inconclusive: 14.6 µM [inhibitor, partial curve]
[7]
  Potency: inconclusive: 8.91 µM [cytotoxic, partial curve]
[8]
  Potency: inconclusive: 8.91 µM [cytotoxic, partial curve, poor fit]
[9]
  Potency: active: 1.58 µM
[15]
  Potency: active: 1.78 µM

## CC(C)CC(=O)n1cc(C(N)=O)c(=O)cc1C(O)c1ccccc1 (stereo unspecified)
[17]
  Potency: inconclusive: 10 µM [inhibitor, full curve]
[2]
  Potency: inactive
[3]
  Potency: inactive
[18]
  Potency: inconclusive: 6.56 µM [inhibitor, partial curve]
[19]
  Potency: inconclusive: 23.3 µM [activator, single point]
[12]
  outcome: inactive
[4]
  outcome: inactive

## O=C(Cc1ccc(-c2ccc(OCCN3CCOCC3)cc2)cn1)NCc1ccccc1
[1]
  Potency: active: 18.7 nM and active: 580 nM
[20]
  Potency: inconclusive: 12 µM [inhibitor, partial curve, poor fit]
[3]
  Potency: active: 258 nM and active: 105 nM
[4]
  Potency: active: 14.8 nM and active: 184 nM
[5]
  Potency: inconclusive: 33.2 µM [inhibitor, single point]
[16]
  Potency: active: 26.4 nM and active: 731 nM
[6]
  Potency: inconclusive: 651 nM [inhibitor, full curve]
[13]
  Potency: inconclusive: 0.794 µM [cytotoxic, single point]
[7]
  Potency: active: 1.58 µM
[8]
  Potency: inconclusive: 0.891 µM [cytotoxic, full curve]
[14]
  Potency: active: 2.82 µM
[9]
  Potency: active: 1.26 µM
[10]
  Potency: inconclusive: 0.398 µM [cytotoxic, full curve, poor fit]
[15]
  Potency: active: 2 µM

Reference: PubChem BioAssay (NCATS)
